Experimental findings from the supplement of paper PMC12645437, “Orthogonal IMiD-Degron Pairs Induce Selective Protein Degradation in Cells” (ACS Chemical Biology, 2025) are described below.

This is one part of the list.
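Further: jurkat cells carrying a lentiviral library of mutant zinc finger degrons fused to EGFP plus mCherry, mCherry+ cells FACS sorted, degron abundance counted by next-generation sequencing.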

In the assay the target is no compound (DMSO). In words: log2 fold change of degron read counts, EGFP-low vs EGFP+ sorted cells; higher = lower degron-EGFP level without compound (poor expression or instability). As to conditions: compound: DMSO control; 18 h.
Take FMCEICGHIFTQKGNLLRHIKL: the “log2 fold change of degron read counts” value was -0.455.

As to FLCPICGAQFTQKGNLLRHIKL, the “log2 fold change of degron read counts” value is -0.584.

Regarding FDCNQCGHKFTQKGNLLRHIKL, the “log2 fold change of degron read counts” value is 0.287.

As for FMCNQCGHWFTQKGNLLRHIKL, the “log2 fold change of degron read counts” value came out at 0.616.

On to FSCPICGRQFTQKGNLLRHIKL, for which the “log2 fold change of degron read counts” value was -0.179.

On to FHCPICGHTFTQKGNLLRHIKL, for which the “log2 fold change of degron read counts” value was -0.147.

Regarding FSCEICGRPFTQKGNLLRHIKL, the “log2 fold change of degron read counts” value is -1.19.

As to FECEICGRTFTQKGNLLRHIKL, the “log2 fold change of degron read counts” value is -2.03.

As for FSCPICGHDFTQKGNLLRHIKL, the “log2 fold change of degron read counts” value was -0.878.

As to FACEICGHHFTQKGNLLRHIKL, the “log2 fold change of degron read counts” value is -0.907.

Turning to FMCEICGRFFTQKGNLLRHIKL, the “log2 fold change of degron read counts” value was -0.587.

As for LLCNQCGFWCTQKGNLLRHIKL, the “log2 fold change of degron read counts” value turned out to be 1.98.

Consider FKCEVCGAFFTQKGNLLRHIKL, for which the “log2 fold change of degron read counts” value was -1.05.

With FSCNVCGASFTQKGNLLRHIKL, the “log2 fold change of degron read counts” value is -0.612.

On to FCCDVCGAFFTQKGNLLRHIKL, for which the “log2 fold change of degron read counts” value was -0.229.

For FICPICGARFTQKGNLLRHIKL, the “log2 fold change of degron read counts” value is -0.386.

Turning to FRCEICGAKFTQKGNLLRHIKL, the “log2 fold change of degron read counts” value was -0.789.

FECPQCGADFTQKGNLLRHIKL: the “log2 fold change of degron read counts” value is -1.83.

On to FTCDQCGANFTQKGNLLRHIKL, for which the “log2 fold change of degron read counts” value was -1.88.

For FFCSVCGHLFTQKGNLLRHIKL, the “log2 fold change of degron read counts” value turned out to be 1.04.

Turning to FDCPVCGAQFTQKGNLLRHIKL, the “log2 fold change of degron read counts” value was -1.01.

Take FLCSVCGHGFTQKGNLLRHIKL: the “log2 fold change of degron read counts” value is -1.1.

With FWCPVCGAMFTQKGNLLRHIKL, the “log2 fold change of degron read counts” value is 1.05.

In the case of FGCEICGRLFTQKGNLLRHIKL, the “log2 fold change of degron read counts” value was -0.269.

As to FICDQCGARFTQKGNLLRHIKL, the “log2 fold change of degron read counts” value is -1.06.

Take FACEVCGAYFTQKGNLLRHIKL: the “log2 fold change of degron read counts” value is -0.198.

With LYCNQCGFVCTQKGNLLRHIKL, the “log2 fold change of degron read counts” value worked out at 1.16.

On to FHCNQCGRWFTQKGNLLRHIKL, for which the “log2 fold change of degron read counts” value stood at 0.667.

For the sequence FRCEICGRMFTQKGNLLRHIKL, the “log2 fold change of degron read counts” value was -0.231.

For the sequence FVCNQCGHVFTQKGNLLRHIKL, the “log2 fold change of degron read counts” value is -0.877.

Regarding FQCDQCGAGFTQKGNLLRHIKL, the “log2 fold change of degron read counts” value was -2.32.

Regarding FMCNQCGHTFTQKGNLLRHIKL, the “log2 fold change of degron read counts” value was -0.117.

For FFCEICGACFTQKGNLLRHIKL, the “log2 fold change of degron read counts” value was -0.305.

For the sequence FHCEICGACFTQKGNLLRHIKL, the “log2 fold change of degron read counts” value is -1.42.

In the case of FWCNQCGASFTQKGNLLRHIKL, the “log2 fold change of degron read counts” value was -0.114.

For FQCPICGRHFTQKGNLLRHIKL, the “log2 fold change of degron read counts” value was 0.273.

As to LCCPICGFQCTQKGNLLRHIKL, the “log2 fold change of degron read counts” value was 0.282.

Turning to FGCPICGRGFTQKGNLLRHIKL, the “log2 fold change of degron read counts” value was determined as 0.0725.

In the case of FGCDQCGACFTQKGNLLRHIKL, the “log2 fold change of degron read counts” value is -1.61.

For the sequence FDCNICGACFTQKGNLLRHIKL, the “log2 fold change of degron read counts” value was -0.718.

With FLCEQCGAKFTQKGNLLRHIKL, the “log2 fold change of degron read counts” value was -1.47.

For FLCDICGAYFTQKGNLLRHIKL, the “log2 fold change of degron read counts” value is -0.101.

Regarding FYCEICGRMFTQKGNLLRHIKL, the “log2 fold change of degron read counts” value is -0.424.

On to FRCDVCGAWFTQKGNLLRHIKL, for which the “log2 fold change of degron read counts” value is -0.332.

Turning to FECEICGAFFTQKGNLLRHIKL, the “log2 fold change of degron read counts” value was -0.878.

With FCCPICGAEFTQKGNLLRHIKL, the “log2 fold change of degron read counts” value is -0.715.

With FGCDQCGAPFTQKGNLLRHIKL, the “log2 fold change of degron read counts” value is -1.02.

With FFCPICGASFTQKGNLLRHIKL, the “log2 fold change of degron read counts” value was determined as 0.0443.

In the case of FLCNQCGHDFTQKGNLLRHIKL, the “log2 fold change of degron read counts” value is -1.87.

Turning to FKCPICGHDFTQKGNLLRHIKL, the “log2 fold change of degron read counts” value is -1.35.
